The values that follow come from paper PMC12040169 (PLOS Biology, 2025).

This is one part of the list.

The subject of this assay is T1, C. trachomatis L2/434/Bu expressing GFP (CTL2-GFP).
T1 construct: L2/434/Bu GFP intracellular growth in HeLa cells
Also on record: species or system HeLa; C. trachomatis total inclusion area by high-content imaging, normalised to DMSO. The conditions noted are these: total inclusion area; 28.5 h, 10 µM; inhibitor. A digest of the protocol: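 After bulk GFP and resorufin fluorescence reads, cells were fixed, stained with Hoechst and imaged by high-content microscopy. Inclusion area and number (GFP) stood in for chlamydial growth, nuclei count (Hoechst) for host cell viability. MICs were derived as for the bulk readout.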
Regarding `Cc1nn(-c2ccccc2)c(O)c1/C=N/c1ccccc1Sc1c(C)n[nH]c1C` [CBK262048], the “% of control remaining” value was 81.5331.

Regarding `O=S(=O)(Nc1ncc(Br)c2cccnc12)c1cccc(C(F)(F)F)c1` [CBK073884], the “% of control remaining” value came to 83.0051.

For `O=C(NCc1ccc(OC2CCNCC2)cc1)c1cnccn1` [CBK036359T], the “% of control remaining” value is 123.13.

As to `Cc1cc(C)n(CC(=O)NCC(c2c(F)cccc2F)N(C)C)n1` (stereo not shown) [CBK305510], the “% of control remaining” value came out at 38.0816.

On to `O=C(Cc1ccc(F)cc1)N1C2CCC1CC(O)(c1ccco1)C2` (stereo not shown) [CBK284033], for which the “% of control remaining” value was found to be 97.3873.

In the case of `O[C@@H]1C[C@@H](c2nc(-c3ccc(F)cc3)no2)N(Cc2ncc[nH]2)C1` [CBK288849], the “% of control remaining” value worked out at 110.79.

With `O=C1CCC(C(=O)N2CC3(CCCC3)c3c(F)cccc32)CN1` (stereo not shown) [CBK304914], the “% of control remaining” value is listed as 33.3169.

Regarding `O=C(NCC1(CCO)CCOC1)c1c[nH]nc1-c1cc2ccccc2o1` (stereo not shown) [CBK305492], the “% of control remaining” value was 99.103.

For `CC(=O)c1ccc(NC(=O)N(C)c2c(C)nc3ccc(C(=O)N4CCN(C(=O)c5ccco5)CC4)cn23)cc1` [CBK146930], the “% of control remaining” value was found to be 98.3221.

As for `Cc1ccc(-c2csc(NC(=O)c3ccc(F)cc3)n2)cc1` [CBK095107], the “% of control remaining” value was 92.9876.

For the compound `CN(CCc1ccncc1)C(=O)c1[nH]nc2c1CCCCC2` [CBK283151], the “% of control remaining” value came to 73.8069.

In the case of `OC(CN[C@H]1CC[C@](O)(c2ccc(Cl)cc2)CC1)c1ccccc1` (stereo partly shown) [CBK016206], the “% of control remaining” value turned out to be 31.487.

As for `O=C(/C=C/c1ccc([N+](=O)[O-])cc1)c1ccc(O)c(O)c1` [CBK265028], the “% of control remaining” value is on record as 71.2303.

As to `O=C(Nc1sc2c(c1C(=O)O)CCC2)c1cccs1` [CBK152437], the “% of control remaining” value came out at 57.3062.

With `CN(C)[C@H]1CCCC[C@@H]1n1c(-c2ccc(Cl)c(Cl)c2)n[nH]c1=O` [CBK010566], the “% of control remaining” value was found to be 70.705.

For the compound `Cc1ccccc1Nc1nc(N)nc(CN2CC(C)OC(C)C2)n1` (stereo not shown) [CBK305856], the “% of control remaining” value was found to be 70.8327.

Regarding `COc1ccc(S(=O)(=O)N2CCCCC2C(=O)O)cc1` (stereo not shown) [CBK077424], the “% of control remaining” value came out at 114.348.

Consider `N#Cc1c(C(F)(F)F)cc(-c2ccccc2)nc1SCCC(=O)Nc1ccccc1O` [CBK268191], for which the “% of control remaining” value is recorded as 77.4888.

Turning to `CC(Cn1cncn1)C(=O)N1CCC(CCc2ccccc2F)CC1` (stereo not shown) [CBK281529], the “% of control remaining” value amounted to 89.0369.

For the compound `Nc1nc(OCCn2cccc2)cnc1-c1ccsc1` [CBK145162], the “% of control remaining” value was found to be 96.2195.

`O=C(CCn1c2ccccc2c2ccccc21)NNC(=S)Nc1ccccc1` [CBK262106]: the “% of control remaining” value was found to be 86.2186.

On to `Cc1ccc(OCC(=O)Nc2cc(Cl)ccc2O)cc1C` [CBK265968], for which the “% of control remaining” value worked out at 122.764.
